# In ChEMBL document CHEMBL1157539, “Thousands of chemical starting points for antimalarial lead identification” (Nature, 2010):
# In all, about 13,000 compounds were measured (“IFI”: median about 4, highest 2% from about 17 on). This is one part of the list.
# Test: GSK_TCMDC: Inhibition Frequency Index (IFI). The number of non-kinase HTS assays where a compound showed > 50 % inhibition, expressed as a percentage of the number of such assays in which the compound was tested (-0 is zero)
# Format: functional
row,Structure (SMILES),IFI
1,CC(C)(C)OC(=O)/C=C(\C(=O)OCc1ccc([N+](=O)[O-])cc1)c1csc(NC(c2ccccc2)(c2ccccc2)c2ccccc2)n1,1.47%
2,CC(=O)Nc1ccc(CCNC(C)Cc2ccc(C(=O)Nc3ccc(CC(C)NCCc4cccc(Cl)c4)cc3)cc2)cc1 (stereo unspecified),6.2%
3,CN1CCCN(Cc2ccc(-c3cccc(NC(=O)c4cccc(C#N)c4)c3)cc2)CC1,5.88%
4,Cc1nc(-c2nc(NCCc3c(C)noc3C)ncc2-c2ccsc2)sc1C,2.33%
5,Cc1cc(N[C@@H](Cc2ccccc2)C(=O)NC2CCCC2)nc(NCCc2cccs2)n1,4.55%
6,CCC1CN2CCc3c([nH]c4ccccc34)[C@@H]2C[C@@H]1CC1NCCc2cc(OC)c(OC)cc21 (stereo partly specified),8.33%
7,O=S(=O)(Nc1cccc(F)c1CNCc1ccccn1)c1ccc(Cl)c(Cl)c1,11.1%
8,COc1cc(Cc2cnc(N)nc2N)cc(OCCn2ccccc2=O)c1OC,0%
9,Cc1ccc(NC(=O)c2ccc3ncccc3c2)cc1OC1CCN(Cc2ccc(F)cc2)CC1,4.84%
10,O=C(/C=C/c1ccc(Cl)c(Cl)c1)NCCCCCN1CCCN(C(=O)Nc2ccc(Cl)c(C(F)(F)F)c2)CC1,8.61%
11,N=C(N)Nc1ccc(OCCCCCOc2ccc(NC(=N)N)c(Cl)c2)cc1Cl,1.48%
12,O=C(/C=C/c1ccc(Cl)cc1Cl)N1CCC(CCN2CCC(c3c[nH]c4ccccc34)CC2)CC1,10.3%
13,CCOC(=O)c1cnc2c(OC)cc(OC)c(Cl)c2c1Nc1cccc(C)c1C,7.09%
14,CO/C(=C\C=C\c1cc2cc(Cl)c(Cl)cc2[nH]1)C(=O)NCCCN1CCN(c2ccc(OC)cc2)CC1,8.53%
15,COc1nc2c(N3CCN(CCNCc4ccc5c(n4)NC(=O)CO5)CC3)ccnc2cc1F,1.6%
16,COC(=O)c1cc(C(=O)CN(Cc2ccccc2)C(C)C)ccc1O,1.39%
17,CC(=NNC(=N)N)c1ccc2c(ccc3ccccc32)c1,7.91%
18,CCCCCCN1CCN(Cc2cccc(NC(=O)c3cc4ccccc4o3)c2)CC1,4.83%
19,CNC(=O)c1ccccc1Nc1nc(Nc2cccc(CS(C)(=O)=O)c2)ncc1C,3.85%

row,Structure (SMILES),IFI
1,O=C1C(c2ccccc2)=C(Nc2cccc(OC(F)(F)C(F)F)c2)c2ccccc21,0.74%
2,Cc1ccc(-c2cnc(N)c3cc(-c4ccnc(N)n4)ccc23)cc1,8.7%
3,CS(=O)(=O)c1ccc(-c2cnc(N)c(-c3cccc(CO)c3)c2)cc1,0%
4,Cc1[nH]c(C)c(-c2ccc(OCCCCSc3ccncc3)cc2)c(=O)c1Br,1.82%
5,Cn1cncc1C(=O)Nc1ccc(-c2ccc(-c3nc4cc(C(F)(F)F)ccc4[nH]3)cc2)cc1,3.57%
6,CCOC(=O)NC1=NC(=N)N(OCCCOc2cc(Cl)c(Cl)cc2Cl)C(C)(C)N1,5.76%
7,COc1ccc(Nc2ncc3c(-c4ccc(NC(=O)c5cccc(C(F)(F)F)c5)cc4)c[nH]c3n2)cc1OC,4.69%
8,O=C(NCc1cccc(F)c1)Nc1ccc(-c2ccc(-c3nc4cc(C(F)(F)F)ccc4[nH]3)cc2)cc1,2.02%
9,CCCC(C)Nc1nc(C)cc(N[C@@H](Cc2ccccc2)C(=O)NCCc2ccccc2)n1 (stereo partly specified),11.1%
10,O=C(NCC1CCN(Cc2ccc3c(c2)OCCO3)C1)c1cc(-c2cccc(C(F)(F)F)c2)cs1 (stereo unspecified),8%
11,COc1cccc(C(=O)NCc2nnc(S)n2-c2ccc(Cl)c(Cl)c2)c1,1.42%
12,Cc1cc(=O)[nH]c(-n2nc(C)cc2NC(=O)C2(c3ccc(Cl)cc3)CCCC2)n1,19.2%
13,Cc1nnsc1C(=O)Nc1ccc(-c2ccc(-c3nc4cccc(C)c4[nH]3)s2)cc1,7.14%
14,CCN(CC)c1ccc(-c2nc3cc(Cl)cnc3[nH]2)cc1,6%
15,CN(C)CCOc1cccc(NC(=O)Nc2ccc(-c3ccccc3)cc2)c1,3.65%
16,Cc1cc(C(F)(F)F)n2nc(C(=O)N(Cc3cncn3Cc3ccccc3F)CC3CC3)cc2n1,-0%
17,O=C(Nc1ccc(Cl)cc1)c1cccc(S(=O)(=O)NC2CCN(CC3CCCCC3)C2)c1 (stereo unspecified),13.9%
18,COc1ccc2nccc([C@@H](O)CN3CCC(NC(=O)c4ccc(CN5CCN(c6cccc(C)c6)CC5C)cc4)CC3)c2c1 (stereo partly specified),13%
19,CCCC(C)NC(=O)[C@H](Cc1ccccc1)NC(=O)c1ccc(O)c(-c2ccc(OC)cc2)c1 (stereo partly specified),2.24%

row,Structure (SMILES),IFI
1,Cc1cnc(CN(Cc2ccc(-c3ccc(CNCCc4ccc(S(C)(=O)=O)cc4)cn3)cc2)C(=O)c2nn(-c3ccccc3)nc2C)cn1,4.23%
2,CC1(C)NC(N)=NC(=N)N1OCCCOc1ccc([N+](=O)[O-])cc1,2.11%
3,Cc1cc(-c2cnc(N)c(-c3ccc(N4CCN(C)CC4)nc3)c2)cc(C)c1O,-0%
4,COc1ccc2nccc([C@@H](O)CN3CCC(NCc4cc5cc(OC(F)(F)F)ccc5[nH]4)CC3)c2c1,12.6%
5,Cc1ccc(C(=O)Nc2ccc(F)cc2)cc1-c1nc(NC2CC(C)(C)NC(C)(C)C2)nc2c1ccc(=O)n2-c1c(F)cccc1F,10.9%
6,CCOC(=O)/C(=N\OC(C(=O)OC(C)(C)C)c1ccccc1)c1csc(NC(c2ccccc2)(c2ccccc2)c2ccccc2)n1 (stereo unspecified),0.74%
7,COc1ccc2nccc([C@@H](O)CN3CCC(NCc4cc5c(F)ccc(F)c5[nH]4)CC3)c2n1,2.9%
8,O=C(NC1CCN(Cc2ccccc2O)C1)c1ccc(Cl)c(Cl)c1 (stereo unspecified),2.14%
9,Nc1nc2c(ncn2OC[C@H](CO)OCP(=O)(O)O)c(=O)[nH]1,1.41%
10,NCCCNc1nc(Nc2ccc(C(F)(F)F)cc2F)c2c(=O)[nH]ccc2n1,9.09%
11,Cc1cccc2nc(-c3ccc(-c4ccc(NC(=O)C(=O)c5cccn5C)cc4)cc3)[nH]c12,3.6%
12,CN1CCN(c2cc3c(cc2Br)CCN3C(=O)Nc2ccc(-c3cnc4ccccc4c3)cc2)CC1,14.3%
13,CN(C)C(=O)c1ccc(CN(Cc2ccc3c(c2)OCCO3)Cc2ccc3c(c2)OCO3)cc1,1.05%
14,COc1cc(C(=O)NC2CCc3ccccc32)cc(Cl)c1OC (stereo unspecified),0%
15,Cc1ccoc1C(=O)Nc1ccc(-c2cccc(-c3nc4cccc(C)c4[nH]3)c2)cc1,5.56%
16,Cc1nc(N)nc(N)c1OCCCCCCOc1ccccc1,2.86%
17,CC1(CCCCN2CCC(c3c[nH]c4cnccc34)CC2)C(=O)Nc2cccc(Cl)c21 (stereo unspecified),3.52%
18,c1ccc(CNCc2ccc(-c3cccc(-c4nc5ccccc5[nH]4)c3)cc2)cc1,9.62%
